Results reported in the antibiotic and cytotoxicity screens of Wong et al. (2023).
Some of the results follow.

tested on: S. aureus RN4220; assay: growth inhibition call (relative growth <= 0.2); details: 50 µM

Growth inhibition call, inactive:
C=CCOC(=O)[C@H]1[C@@H]2C(=O)O[C@@H](c3ccccc3)[C@@H](c3ccccc3)N2[C@@H](c2ccc(OCCOC(=O)[C@@H]3C[C@@H]4C(=O)N[C@@H](CCCCNC(C)=O)C(=O)N4[C@@H]3c3ccc(O)cc3)cc2)[C@]12C(=O)Nc1ccccc12, COc1ccc([C@H]([C@H](Cc2ccccc2)OC(C)=O)N(C[C@@H](/C=C/c2ccccc2)CC(=O)N(C)C)[C@@H](Cc2ccccc2)C(OC)OC)cc1, C[C@H]1CN([C@@H](C)CO)C(=O)c2cc(NC(=O)Nc3ccc4c(c3)OCO4)ccc2O[C@H]1CN(C)Cc1ccc(Cl)c(Cl)c1, NC(=O)CCCCC1CCSS1 (stereo not given), O=C(CN1CCOCC1)NCC[C@H]1CC[C@H](NC(=O)c2ccc3c(c2)OCO3)[C@@H](CO)O1, C[C@@H]1CN([C@@H](C)CO)C(=O)c2cc(NC(=O)C3CCCCC3)ccc2O[C@@H](C)CCCCO[C@H]1CN(C)Cc1ccc(Cl)c(Cl)c1, C[C@@H]1CCCCO[C@@H](CN(C)C(=O)Nc2cccc3ccccc23)[C@H](C)CN([C@@H](C)CO)C(=O)c2cc(NS(=O)(=O)c3ccc(F)cc3)ccc2O1, C[C@H](CO)N1C[C@H](C)[C@@H](CN(C)C(=O)c2ccncc2)Oc2cc(-c3cccc(C#N)c3)ccc2S1(=O)=O, O=C(c1ccc(-n2cnnn2)cc1)N1CCN([C@H]2CCS(=O)(=O)C2)CC1, C[C@@H]1CN([C@@H](C)CO)S(=O)(=O)c2ccc(C#CC3CCCCC3)cc2O[C@H]1CN(C)C(=O)Cc1ccncc1, COc1ccc(NC(=O)Nc2ccc3c(c2)C(=O)N([C@@H](C)CO)C[C@@H](C)[C@H](CN(C)C(=O)Nc2ccc(F)cc2)OCCCC[C@@H](C)O3)cc1, C[C@@H]1CN([C@@H](C)CO)C(=O)c2cc(NC(=O)NC3CCCCC3)ccc2O[C@@H](C)CCCCO[C@H]1CN(C)C(=O)Cc1ccccc1, Cc1noc(C)c1S(=O)(=O)N(C)C[C@H]1OCCCC[C@H](C)Oc2ccc(NS(C)(=O)=O)cc2C(=O)N([C@H](C)CO)C[C@H]1C, COCC#Cc1ccc2c(c1)O[C@H](CN(C)Cc1ccc3c(c1)OCO3)[C@H](C)CN([C@@H](C)CO)S2(=O)=O, C[C@@H]1CN([C@@H](C)CO)C(=O)c2cc(NC(=O)Nc3cccc4ccccc34)ccc2O[C@H]1CN(C)Cc1ccc(-c2ccccc2)cc1, C[C@H](CO)N1C[C@H](C)[C@@H](CN(C)C(=O)NC2CCCCC2)Oc2ccc(NC(=O)C3CC3)cc2C1=O, CCCSc1ccc2nc(NC(=O)OC)[nH]c2c1, C[C@@H]1CN([C@H](C)CO)C(=O)c2cc(NC(=O)CCC(F)(F)F)ccc2O[C@@H]1CN(C)Cc1ccc(Oc2ccccc2)cc1, COc1ccc(-c2cnc3c(c2)C(=O)N([C@H](C)CO)C[C@@H](C)[C@H](CN(C)C(=O)Cc2ccccn2)O3)cc1, COc1ccccc1-c1cnc2c(c1)C(=O)N([C@@H](C)CO)C[C@@H](C)[C@@H](CN(C)C(=O)c1cccnc1)O2, C[C@H](CO)N1C[C@H](C)[C@@H](CN(C)C(=O)c2ccccc2)Oc2cc(C#C[C@@H](C)O)ccc2S1(=O)=O, Cn1cnc(S(=O)(=O)N[C@@H]2C=C[C@H](CC(=O)N3CCN(c4ccccc4)CC3)O[C@@H]2CO)c1, C[C@H](N)C(=O)N[C@@H](C)P(=O)(O)O, COc1cccc(S(=O)(=O)N[C@@H]2C=C[C@@H](CC(=O)NC3CCC3)O[C@@H]2CO)c1, C[C@@H]1CN([C@H](C)CO)C(=O)c2cc(C#Cc3cccc(F)c3)cnc2O[C@H]1CN(C)Cc1ccccn1, Cc1ccc(S(=O)(=O)N(C)C[C@@H]2Oc3ccc(NC(=O)CCCN(C)C)cc3C(=O)N([C@@H](C)CO)C[C@@H]2C)cc1, C[C@H]1CN([C@@H](C)CO)C(=O)c2cc(C#CCN(C)C)cnc2O[C@@H]1CN(C)S(=O)(=O)c1ccccc1, COc1cccc(S(=O)(=O)Nc2ccc3c(c2)C(=O)N(C)C[C@@H](OC)[C@@H](C)CN(C(=O)Cc2cccnc2)[C@H](C)CO3)c1, COc1ccc(S(=O)(=O)N2C[C@H](O)COC[C@H]3O[C@H](CC(=O)NCCCN4CCOCC4)CC[C@@H]32)cc1, C[C@@H]1CN([C@@H](C)CO)C(=O)c2cc(C#Cc3ccc(F)cc3)cnc2O[C@@H]1CN(C)Cc1ccccn1, C[C@@H]1CN([C@H](C)CO)C(=O)c2cc(NC(=O)Nc3cccc4ccccc34)ccc2O[C@H]1CN(C)S(=O)(=O)c1ccc(Cl)cc1, COc1ccc(NC(=O)Nc2ccc3c(c2)C(=O)N([C@H](C)CO)C[C@@H](C)[C@H](CN(C)S(=O)(=O)c2ccc(Cl)cc2)OCCCC[C@H](C)O3)cc1, C[C@@H]1CN([C@H](C)CO)C(=O)c2cc(NC(=O)Nc3ccc4c(c3)OCO4)ccc2O[C@H]1CN(C)C(=O)Nc1cccc2ccccc12, COc1ccc(CN(C)C[C@H]2OCCCC[C@@H](C)Oc3ccc(NC(=O)Nc4cccc5ccccc45)cc3C(=O)N([C@@H](C)CO)C[C@@H]2C)cc1, COc1cccc(S(=O)(=O)N(C)C[C@@H]2Oc3cc(C#CCN(C)C)ccc3S(=O)(=O)N([C@H](C)CO)C[C@@H]2C)c1, N#Cc1c(N)nc(SCc2csc(-c3ccc(Cl)cc3)n2)c(C#N)c1-c1ccc(OCCO)cc1, CC(C)COc1c[nH]c(CO)cc1=O, C[C@H](CO)N1C[C@H](C)[C@H](CN(C)S(C)(=O)=O)Oc2c(NC(=O)CCCCCC(=O)Nc3ccccc3N)cccc2C1=O, C[C@H](CO)N1C[C@H](C)[C@@H](CN(C)S(=O)(=O)c2ccc(F)cc2)Oc2ccc(NS(C)(=O)=O)cc2CC1=O, C[C@H](CO)N1C[C@H](C)[C@H](CN(C)C(=O)Nc2ccc3c(c2)OCO3)Oc2ccc(NC(=O)Cn3cnnn3)cc2CC1=O
